In the supplement of paper PMC3334620:
In all, about 33,000 sequences were measured (“E-score (-0.5 to 0.5)”: median about -0.043, highest 2% from about 0.37 on). The list shows a part of the results.

What follows are sequences tested against T1, Upc2 (UniProt Q12151) (assay: PBM E-score (8-mer binding enrichment) (E-score (-0.5 to 0.5)); higher = stronger / more preferred TF binding; most listed sequences are background and not binding sites). Conditions: protein concentration: 200 nM; construct: GST-full length.
T1 sequence: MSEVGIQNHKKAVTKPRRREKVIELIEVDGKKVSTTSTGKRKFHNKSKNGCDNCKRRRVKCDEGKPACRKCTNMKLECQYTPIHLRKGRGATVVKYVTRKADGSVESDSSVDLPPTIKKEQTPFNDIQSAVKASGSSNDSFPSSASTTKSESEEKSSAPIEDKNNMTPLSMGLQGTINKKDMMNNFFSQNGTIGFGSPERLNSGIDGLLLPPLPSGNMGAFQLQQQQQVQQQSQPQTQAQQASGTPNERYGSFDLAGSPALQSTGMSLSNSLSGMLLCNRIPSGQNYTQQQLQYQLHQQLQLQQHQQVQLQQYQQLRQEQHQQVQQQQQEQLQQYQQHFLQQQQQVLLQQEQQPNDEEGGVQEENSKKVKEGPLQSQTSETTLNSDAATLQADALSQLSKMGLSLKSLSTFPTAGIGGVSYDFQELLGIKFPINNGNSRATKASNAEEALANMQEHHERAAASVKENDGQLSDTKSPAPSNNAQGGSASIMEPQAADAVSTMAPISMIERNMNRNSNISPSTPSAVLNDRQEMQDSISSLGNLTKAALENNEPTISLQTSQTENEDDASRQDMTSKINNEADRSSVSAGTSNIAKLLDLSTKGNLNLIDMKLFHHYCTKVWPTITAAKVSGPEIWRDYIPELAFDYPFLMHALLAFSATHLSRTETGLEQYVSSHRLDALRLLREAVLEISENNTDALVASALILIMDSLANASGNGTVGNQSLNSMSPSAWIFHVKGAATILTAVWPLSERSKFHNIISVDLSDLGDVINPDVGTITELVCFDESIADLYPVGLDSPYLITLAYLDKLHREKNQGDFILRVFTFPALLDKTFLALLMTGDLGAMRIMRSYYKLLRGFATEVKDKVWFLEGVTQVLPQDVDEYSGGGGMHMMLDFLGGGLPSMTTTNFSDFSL
How it was run: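 For each ungapped eight-base word taken together with its reverse complement, the Universal PBM Analysis Suite assigned an E-score. Binding data came from GST-tagged yeast transcription factors, applied at about 100-200 nM, on universal all-10-mer Agilent arrays made double-stranded by primer extension. Fluorescent anti-GST marked bound protein, and scans were normalised with masliner.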

Sequence	PBM E-score
AATATCGT	0.29
TGCTAACA	-0.196
CGTTTCAA	0.243
ATTGGATA	-0.216
GATGGCGA	-0.0169
AGAATACA	-0.0142
AGGGCAGG	-0.26
CGGGAGGA	-0.157
CTCCAATA	-0.167
CAATTAGG	-0.0068
ACAAAGGA	-0.0862
ATCGGCCG	-0.0746
CACCTATA	0.178
AGACGTCG	0.0764
GACGGTAA	0.0512
GCCCTGAC	-0.192
TACACTGA	0.122
GAAGCGAA	0.173
ATGATTAA	0.103
TCACACGA	0.237
ACAGACTG	-0.0187
ACATTCGT	0.375
AGTATCGG	-0.0323
AACGGGGT	0.182
GTAAAGAC	0.178

Sequence	PBM E-score
CACTGAGC	-0.194
GTGAGAAC	-0.188
AGGGATCA	-0.0474
ATTAATTC	0.175
AGCAACCC	0.0667
CCCTCAAA	-0.114
TAGCCGCA	-0.295
GTCATGGA	-0.185
CGGAAACC	-0.116
ACAAATGC	0.109
AGAAAACA	0.114
AAAGGACA	-0.0892
CATCGTTA	0.324
GACCTCAC	-0.212
TCCCAGCA	-0.123
CATTGTGG	-0.226
ATTCATTA	-0.0383
CGGTATAA	0.267
AACAGATT	-0.0821
CGGGTTTC	-0.00388
AAGCCGTG	-0.0887
AGGCCTAC	-0.0129
ATATCCTG	-0.0367
CGGTTAAC	0.239
GGCTTACC	-0.134

Sequence	PBM E-score
AAAACACT	0.0262
CTTCACTC	0.00635
CGTTAAGC	0.432
AAAACGCC	-0.0196
GAGGGCCA	-0.084
CTGTTGCA	-0.131
AGACTGGC	-0.2
GCTATCTA	-0.252
ACCTCTTC	-0.0247
ACCTGCGC	-0.135
AGGGACGC	-0.0515
AGGCATCG	0.212
AACGAGAT	0.417
AGGCCCTC	-0.0342
CCAAGTAC	0.17
AGAACGTC	-0.066
GATTCTCA	-0.16
CAGCCTTC	-0.158
GTACTGGA	0.167
ACGTTGGA	0.0887
AGTCCCGC	-0.286
GAACGTAA	0.228
CCCTAACA	-0.0595
AAGCTGTC	0.00604
GAGTCTGC	-0.106

Sequence	PBM E-score
AATCGGGT	0.0594
ACAACACC	0.0369
CTTAAAAC	0.09
CATTAAAG	-0.155
CGCCGGCG	-0.0809
CGCTAGAC	-0.0752
ACATAGGC	-0.126
CCGATGTA	-0.113
CTTCTACC	-0.195
ATAGCCAC	0.0332
TATAGAAA	0.0668
AAAGTACC	0.0378
AGACCGTC	0.0749
CCTCCGCG	-0.226
GTTCGCAA	0.245
AATATCAG	-0.0672
ACTATAGT	0.0664
CTGCGGGC	-0.1
CTGCGGCC	0.0579
GTCTCGCA	0.0886
GAAGTACC	0.114
GGCCCCCC	-0.32
GAAATAGA	0.0708
CAGTCGTA	0.416
AAAGTTTA	0.0533

Sequence	PBM E-score
TAATTACA	-0.0323
CGGGCGCA	-0.0627
GATGAAAC	0.124
CAGAAACG	0.31
GCGTCACC	-0.0201
CTGAAATA	-0.141
AACCTTCC	-0.104
ATCGAAAA	0.137
ATCCAAAA	-0.237
GCTTCAGA	-0.232
CCATAAGA	-0.126
CTCATGAG	-0.0708
GAACTAGC	-0.0289
AAGGCCTG	-0.131
AGCGGGGC	0.072
AGCGAATG	0.177
ACCATACG	0.399
GGTTTACA	-0.0166
AAACATGC	0.0746
AGTAACGC	-0.125
ATTAGCTG	-0.0187
AACGTTTC	0.172
CAGTAAAG	-0.149
GGACGACA	-0.266
CGCAGAAA	-0.101

Sequence	PBM E-score
GGTAGTGA	-0.184
AATGAGAG	-0.196
AACACTGT	-0.037
ATTGGCCC	-0.354
CCGCGGAC	-0.334
AACTTAAA	0.0618
ATACTACA	0.0186
CACCAGCG	-0.0473
AAATTTCG	0.205
AGCAGCCT	-0.108
CCGTAAAA	0.374
GGGTAAAA	-0.00698
GACGGAAA	0.0904
CTTGCCCA	-0.115
AGTCAGTG	-0.122
AGGAAACC	-0.079
ACACGGGG	-0.0346
CACCAACG	0.029
AAAGCTAC	-0.074
CTCCTCTA	-0.18
TCGTCTCA	0.119
GCATTCGA	0.0425
CCCCCGCG	-0.0395
CAGCAAAA	0.0394
CTCTTACC	0.174

Sequence	PBM E-score
CAGTGGTA	-0.0555
CCCCGAAC	0.107
AAGACAGT	-0.202
AGTAGAAG	-0.15
ACAGGGGC	-0.131
ACTAGGAT	0.0285
CCCGTACC	0.383
GCACCCAC	0.0871
AATCTGGG	-0.202
ATAAGCGG	-0.0234
AAGGGGAA	-0.236
AGCTAGGA	-0.232
AACAGACT	-0.126
GTGGATTA	-0.149
AGCAGGAC	-0.0905
CACTCAGA	-0.0962
AAACTGAG	-0.0946
AACGATCA	0.379
CAGTTAGC	-0.269
GTGGCCGA	-0.162
AAACTCGT	0.327
CCCTTCAA	-0.107
